Laboratory results from the supplement of paper PMC8728848.
The list shows a part of the results.

Columns and labels:
Assay in all cases: glycan array binding signal (z-score within array); higher = stronger binding
Details in all cases: glycan notation: IUPAC condensed, linker removed
[1] = target: 3dGal(b1-3)[Fuc(a1-4)]Glc
Outline: (§1)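 Columns mapping to the same glycan were averaged after glycan names were converted to IUPAC-condensed notation. The data come from 3228 arrays in the Consortium for Functional Glycomics database, limited to those with an available protein sequence. Binding is reported as a within-array Z-score averaged across arrays of one protein sequence and across linkers.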

3dGal(b1-4)Glc = target: 3dGal(b1-4)Glc
Outline: as §1

[2] = target: Ara(a1-5)Ara(a1-5)Ara(a1-5)Ara(a1-5)Ara(a1-5)Ara
Outline: as §1

[3] = target: Ara(a1-5)Ara(a1-5)Ara(a1-5)Ara(a1-5)Ara(a1-5)Ara(a1-5)Ara
Outline: as §1

Fuc(a1-2)Gal = target: Fuc(a1-2)Gal
Outline: as §1

[4] = target: Fuc(a1-2)Gal(b1-3)GlcNAc(b1-3)Gal(b1-4)Glc
Outline: as §1

[5] = target: Fuc(a1-2)Gal(b1-3)GlcNAc(b1-3)[Fuc(a1-3)[Gal(b1-4)]GlcNAc(b1-6)]Gal(b1-4)Glc
Outline: as §1

[6] = target: Fuc(a1-2)Gal(b1-3)[Fuc(a1-4)]GlcNAc(b1-3)Gal(b1-4)Glc
Outline: as §1

[7] = target: Fuc(a1-2)Gal(b1-3)[Fuc(a1-4)]GlcNAc(b1-3)Gal(b1-4)[Fuc(a1-3)]GlcNAc(b1-3)Gal(b1-4)Glc
Outline: as §1

[8] = target: Fuc(a1-2)Gal(b1-3)[Fuc(a1-4)]GlcNAc(b1-3)[Fuc(a1-2)]Gal(b1-4)Glc
Outline: as §1

[9] = target: Fuc(a1-2)Gal(b1-3)[Fuc(a1-4)]GlcNAc(b1-3)[Fuc(a1-3)[Gal(b1-4)]GlcNAc(b1-6)]Gal(b1-4)Glc
Outline: as §1

[10] = target: Fuc(a1-2)Gal(b1-3)[Fuc(a1-4)]GlcNAc(b1-3)[Gal(b1-4)GlcNAc(b1-6)]Gal(b1-4)Glc
Outline: as §1

[11] = target: Fuc(a1-2)Gal(b1-4)[Fuc(a1-3)]GlcNAc(b1-3)Gal(b1-4)Glc
Outline: as §1

[12] = target: Fuc(a1-2)Gal(b1-4)[Fuc(a1-3)]GlcNAc(b1-3)[Fuc(a1-2)]Gal(b1-4)Glc
Outline: as §1

Fuc(a1-2)[Gal(a1-3)]Gal = target: Fuc(a1-2)[Gal(a1-3)]Gal
Outline: as §1

[13] = target: Fuc(a1-2)[Gal(a1-3)]Gal(b1-4)GlcNAc(b1-3)Gal(b1-4)Glc
Outline: as §1

[14] = target: Fuc(a1-2)[GalNAc(a1-3)]Gal
Outline: as §1

[15] = target: Fuc(a1-2)[GalNAc(a1-3)]Gal(b1-3)GlcNAc(b1-3)Gal(b1-4)Glc
Outline: as §1

[16] = target: Fuc(a1-2)[GalNAc(a1-3)]Gal(b1-3)[Fuc(a1-4)]GlcNAc(b1-3)Gal(b1-4)Glc
Outline: as §1

[17] = target: Fuc(a1-2)[Neu5Ac(bond)]Gal(b1-3)GlcNAc(b1-3)Gal(b1-4)Glc
Outline: as §1

Fuc(a1-3)GlcNAc6S = target: Fuc(a1-3)GlcNAc6S
Outline: as §1

[18] = target: Fuc(a1-3)[3dGal(b1-4)]Glc
Outline: as §1

Fuc(a1-3)[Gal(b1-4)]Glc = target: Fuc(a1-3)[Gal(b1-4)]Glc
Outline: as §1

[19] = target: Fuc(a1-3)[Gal(b1-4)]GlcNAc
Outline: as §1

[20] = target: Fuc(a1-3)[Gal(b1-4)]GlcNAc(b1-3)Gal(b1-4)Glc
Outline: as §1

[21] = target: Fuc(a1-3)[Gal(b1-4)]GlcNAc(b1-3)Gal(b1-4)[Fuc(a1-3)]Glc
Outline: as §1

[22] = target: Fuc(a1-3)[Gal(b1-4)]GlcNAc(b1-3)[Fuc(a1-2)]Gal(b1-4)Glc
Outline: as §1

[23] = target: Fuc(a1-3)[Gal(b1-4)]GlcNAc(b1-3)[Fuc(a1-3)[Gal(b1-4)]GlcNAc(b1-6)]Gal(b1-4)Glc
Outline: as §1

[24] = target: Fuc(a1-3)[Gal3S(b1-4)]Glc
Outline: as §1

[25] = target: Fuc(a1-3)[Gal3S(b1-4)]GlcNAc
Outline: as §1

[26] = target: Fuc(a1-3)[Gal3S(b1-4)]GlcNAc(b1-3)Gal(b1-4)Glc
Outline: as §1

[27] = target: Fuc(a1-3)[Gal3S(b1-4)]GlcNAc6S(b1-3)Gal(b1-4)Glc
Outline: as §1

[28] = target: Fuc(a1-3)[Gal6S(b1-4)]GlcNAc(b1-3)Gal(b1-4)Glc
Outline: as §1

Fuc(a1-6)GlcNAc = target: Fuc(a1-6)GlcNAc
Outline: as §1

[29] = target: Gal(a1-3)Gal(b1-4)Gal(a1-3)Gal
Outline: as §1

Gal(a1-4)Gal(b1-4)Glc = target: Gal(a1-4)Gal(b1-4)Glc
Outline: as §1

Gal(a1-4)Gal(b1-4)GlcNAc = target: Gal(a1-4)Gal(b1-4)GlcNAc
Outline: as §1

B1: MIC1 (Toxoplasma gondii), O00834 (protein)
chain: VGPEAYGEASHSHSPASGRYIQQMLDQRCQEIAAELCQSGLRKMCVPSSRIVARNAVGITHQNTLQWRCFDTASLLESNQENNGVNCVDDCGHTIPCPGGVHRQNSNHATRHEILSKLVEEGVQRFCSPYQASANKYCNDKFPGTIARRSKGFGNNVEVAWRCYEKASLLYSVYAECASNCGTTWYCPGGRRGTSTELDKRHYTEEEGIRQAIGSVDSPCSEVEVCLPKDENPPLCLDESGQISRT
glycan array binding signal (z-score) [1]: -0.312
glycan array binding signal (z-score) (3dGal(b1-4)Glc): -0.305
glycan array binding signal (z-score) [2]: -0.287
glycan array binding signal (z-score) [3]: -0.287
glycan array binding signal (z-score) (Fuc(a1-2)Gal): -0.287
glycan array binding signal (z-score) [4]: -0.312
glycan array binding signal (z-score) [5]: -0.297
glycan array binding signal (z-score) [6]: -0.293
glycan array binding signal (z-score) [7]: -0.302
glycan array binding signal (z-score) [8]: -0.273
glycan array binding signal (z-score) [9]: -0.312
glycan array binding signal (z-score) [10]: -0.269
glycan array binding signal (z-score) [11]: -0.296
glycan array binding signal (z-score) [12]: -0.312
glycan array binding signal (z-score) (Fuc(a1-2)[Gal(a1-3)]Gal): -0.292
glycan array binding signal (z-score) [13]: -0.253
glycan array binding signal (z-score) [14]: -0.287
glycan array binding signal (z-score) [15]: -0.312
glycan array binding signal (z-score) [16]: 0.013
glycan array binding signal (z-score) [17]: -0.42
glycan array binding signal (z-score) (Fuc(a1-3)GlcNAc6S): -0.249
glycan array binding signal (z-score) [18]: -0.337
glycan array binding signal (z-score) (Fuc(a1-3)[Gal(b1-4)]Glc): -0.287
glycan array binding signal (z-score) [19]: -0.287
glycan array binding signal (z-score) [20]: -0.359
glycan array binding signal (z-score) [21]: -0.312
glycan array binding signal (z-score) [22]: -0.28
glycan array binding signal (z-score) [23]: -0.312
glycan array binding signal (z-score) [24]: -0.041
glycan array binding signal (z-score) [25]: -0.284
glycan array binding signal (z-score) [26]: -0.42
glycan array binding signal (z-score) [27]: -0.418
glycan array binding signal (z-score) [28]: -0.42
glycan array binding signal (z-score) (Fuc(a1-6)GlcNAc): -0.287
glycan array binding signal (z-score) [29]: -0.305
glycan array binding signal (z-score) (Gal(a1-4)Gal(b1-4)Glc): -0.287
glycan array binding signal (z-score) (Gal(a1-4)Gal(b1-4)GlcNAc): -0.302
